Measured values as given in publication PMC4336329 (PLoS ONE, 2015).
Screen size: about 310,000 compounds; about 2,200 (0.71%) showed an effect of 50% or more. Effects have a minus sign here. Some of the results follow.

target: human ether-à-go-go-related gene (hERG) potassium channel (human, UniProt Q12809); assay: primary screen, population patch clamp on CHO cells stably expressing hERG
Sequence (Q12809 whole entry, looked up): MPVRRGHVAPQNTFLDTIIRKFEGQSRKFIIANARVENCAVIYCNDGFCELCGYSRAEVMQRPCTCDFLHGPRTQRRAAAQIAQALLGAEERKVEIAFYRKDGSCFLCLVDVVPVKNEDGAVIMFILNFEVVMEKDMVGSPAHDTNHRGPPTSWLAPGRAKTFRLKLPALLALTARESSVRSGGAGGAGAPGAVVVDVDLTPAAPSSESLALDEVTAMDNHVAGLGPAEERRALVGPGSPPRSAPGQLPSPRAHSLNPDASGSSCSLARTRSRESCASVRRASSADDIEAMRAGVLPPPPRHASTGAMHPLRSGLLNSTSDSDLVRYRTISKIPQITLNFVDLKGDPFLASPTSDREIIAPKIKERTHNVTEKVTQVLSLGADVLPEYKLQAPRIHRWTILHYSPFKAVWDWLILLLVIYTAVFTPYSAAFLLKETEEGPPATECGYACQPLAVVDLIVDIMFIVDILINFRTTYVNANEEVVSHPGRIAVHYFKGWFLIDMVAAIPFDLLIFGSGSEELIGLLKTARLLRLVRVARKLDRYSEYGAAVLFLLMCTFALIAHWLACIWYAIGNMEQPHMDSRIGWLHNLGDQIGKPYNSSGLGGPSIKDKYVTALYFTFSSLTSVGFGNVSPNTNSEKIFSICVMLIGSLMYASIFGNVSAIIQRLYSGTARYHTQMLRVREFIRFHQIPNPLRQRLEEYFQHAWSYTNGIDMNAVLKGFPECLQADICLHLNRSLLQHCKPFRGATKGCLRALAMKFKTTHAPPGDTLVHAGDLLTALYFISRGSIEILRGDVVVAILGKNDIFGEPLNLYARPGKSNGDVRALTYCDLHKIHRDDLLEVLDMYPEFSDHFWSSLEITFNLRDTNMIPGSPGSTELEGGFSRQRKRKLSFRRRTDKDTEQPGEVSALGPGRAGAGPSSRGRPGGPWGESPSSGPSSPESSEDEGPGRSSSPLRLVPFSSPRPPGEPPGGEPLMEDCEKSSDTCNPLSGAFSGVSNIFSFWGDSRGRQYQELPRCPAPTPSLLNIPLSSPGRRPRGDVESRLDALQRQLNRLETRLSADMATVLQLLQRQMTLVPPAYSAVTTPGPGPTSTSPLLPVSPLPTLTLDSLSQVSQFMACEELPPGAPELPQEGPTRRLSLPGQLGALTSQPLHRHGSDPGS

| Structure (SMILES) | hERG current change (%, negative = inhibition) at 1uM |
| --- | --- |
| Cc1ccc(S(=O)(=O)N2CCN(c3c([N+](=O)[O-])cc(C(F)(F)F)cc3[N+](=O)[O-])CC2)cc1 | 10.9% |
| COCCCN1C(=O)C(=O)/C(=C(/O)c2ccc(OC)cc2)C1c1ccc(O)c(OC)c1 (stereo not drawn) | 6.46% |
| COc1ccc(Nc2cc(C)nc3ccc(OC)cc23)cc1 | -15.6% |
| CCNC(=O)NC1(C(=O)N2CCC(Cc3ccccc3)CC2)CCCCC1 | 12.8% |
| Cc1cccc(NC(=O)CSc2nnc(NC(=O)C3CCC3)s2)c1 | 12.5% |
| COC(=O)CC1C(=O)NCCN1C(=O)c1ccc(S(=O)(=O)N2CCOCC2)cc1 (stereo not drawn) | 8.7% |
| Cc1ccc(NC(=O)Cn2c(CCC(=O)O)ccc2-c2cccs2)cc1Cl | -35.4% |
| Cc1ccc(-c2ccc3c(c2)S(=O)(=O)c2ccccc2C3=O)cc1 | 10.6% |
| C=CCNC(=O)c1onc(CSc2cccc(C)c2)c1C(=O)O | -15.8% |
| COCCNC(=O)/C(C#N)=C/c1cccc(OCc2ccccc2)c1 | 3.12% |
| CC(C(=O)NC1C=CS(=O)(=O)C1)N1C(=O)/C(=C/c2ccc(Cl)cc2)SC1=S (stereo not drawn) | 8.8% |
| COc1ccc(CCN(C)CC(O)COc2c(C)ccc(C)c2C)cc1OC (stereo not drawn) | -68.7% |
| O=S(=O)(Nc1ccc(-c2ccc3nncn3n2)cc1)c1cc(F)ccc1F | 1.51% |
| Cc1ccc(-c2nn(C)c(=O)c3ccccc23)cc1CNS(C)(=O)=O | 10.7% |
| COc1cc(O)oc1C=Nc1ccccc1 | -19.9% |
| CCCC1C2C(=O)N(c3cccc(C)c3)C(=O)C2ON1c1ccccc1 (stereo not drawn) | 4.52% |
| CCOC(=O)c1nc(-c2ccccc2)sc1C(C)=O | 17.7% |
| C=CCNc1ccc(F)c(F)c1N1CCCCCC1=O | 5.99% |
| Cc1ccc(Cl)c(OCC(O)CN(CCO)CCO)c1 (stereo not drawn) | 10.3% |
| CCc1nc2ccc(C(=O)Nc3cccc(C(C)=O)c3)cc2nc1CC | 4.59% |
| c1ccc(C2CC(c3ccccc3)C(c3ccccc3)N2)cc1 (stereo not drawn) | 10.5% |
| CC1CCCN(c2nc3nonc3nc2Nc2ccccc2F)C1 (stereo not drawn) | 19.2% |
| Cc1cc(OCC(=O)OCC(=O)N(C)c2c(N)n(Cc3ccccc3)c(=O)[nH]c2=O)ccc1Cl | 5.96% |

| Structure (SMILES) | hERG current change (%, negative = inhibition) at 1uM |
| --- | --- |
| CC(C)(C)n1ncc2c(=O)n(Cc3cccc(Cl)c3)cnc21 | -10.1% |
| CC(Nc1nc(-c2ccc(F)cc2)cs1)c1nc2cc(C(F)(F)F)ccc2n1CCCO (stereo not drawn) | -11.6% |
| Cc1ccc(/C=N/NC(=O)CSc2nc3ccccc3n2Cc2ccc(Cl)cc2)o1 | -1.89% |
| CC1CCN(C(=O)Oc2ccccc2)CC1 | 21.8% |
| CCCCOc1ccccc1NC(=O)CC1Nc2ccccc2NC1=O (stereo not drawn) | 7% |
| CCOC(=O)CNc1nc(Oc2ccc(=O)n(C)n2)nc(N(CC)CC)n1 | 13.6% |
| CCOC(=O)C1=C(c2ccccc2)NC(SCC)=C(C#N)C1c1cccnc1 (stereo not drawn) | 6.14% |
| CC(C)(C)NC(=O)c1ccc2nccnc2c1 | 14.1% |
| Cc1cccc(NCc2n[nH]c(=S)n2-c2ccccc2)c1 | 11.6% |
| O=C(O)C1Nc2c(C(F)(F)F)ccc(Cl)c2C2C=CCC12 (stereo not drawn) | 15.4% |
| O=C(NNC(=O)C1CCN(S(=O)(=O)c2c(Cl)cccc2Cl)CC1)c1ccccc1O | 4.4% |
| C=CCN=C1SCC(=O)N1S(=O)(=O)c1ccc(C)cc1 | 5.48% |
| O=C(COC(=O)c1ccc(Cl)nc1)Nc1cccc(S(=O)(=O)N2CCCCC2)c1 | -2.55% |
| O=C(c1ccco1)N1CCN(c2ccc(F)cc2)CC1 | 5.88% |
| Cc1csc2ncc(C(=O)Nc3ccc4c(c3)OCCO4)c(=O)n12 | 12.2% |
| CN(C(=O)COC(=O)c1ccc(=O)n(Cc2ccccc2)n1)C1CCS(=O)(=O)C1 (stereo not drawn) | -5.82% |
| COc1cc(C=O)ccc1OCCOCCOc1ccc(Cl)cc1 | -2.67% |
| CC(C)n1c(NCc2nc3ccccc3n2C)nc2ccccc21 | -12.9% |
| Cn1c(=O)[nH]c(=O)c2c1nc(N1CCOCC1)n2CCSc1nnnn1-c1ccccc1 | -1.61% |
| Brc1ccc(/C=N/c2nc3ccccc3n2CCN2CCOCC2)cc1 | 9.25% |
| CCC/C(O)=C1\C(=O)CC(c2ccccc2)CC1=NCCc1c(C)[nH]c2ccc(C)cc12 (stereo not drawn) | 11.4% |
| COc1ccc(CCn2c(O)c(C=NCCCN(C)C)c(=O)[nH]c2=O)cc1OC | -1.74% |
| O=C(CSc1nc2ccccc2o1)Nc1ccc(Cl)cc1 | -21.5% |

| Structure (SMILES) | hERG current change (%, negative = inhibition) at 1uM |
| --- | --- |
| COc1ccccc1C(=O)Nc1ccc(C(=O)/C=C/c2cccs2)cc1 | 8.74% |
| CCOc1cc(S(=O)(=O)NC2CCCCCC2)ccc1F | 2.64% |
| Cc1[nH]c(=O)[nH]c(=O)c1S(=O)(=O)N(C)Cc1ccccc1 | 0.238% |
| Cc1cccc(N2CCN(C(=O)COc3cc4oc(=O)cc(C)c4cc3Cl)CC2)c1C | 7.06% |
| CCOC(=O)CN1CC23C=CC(O2)C(C(=O)Nc2ccc(F)c(C)c2)C3C1=O (stereo not drawn) | 16.3% |
| COc1ccc(NC(=O)C(=O)NCc2ccncc2)c(OC)c1 | 9.16% |
| C/C(=N\NC(=O)c1ccc(N2CCCC2=O)cc1)c1ccncc1 | 10.2% |
| COC(=O)c1ccc(OC(=O)C23CCC(C)(C(=O)O2)C3(C)C)cc1 (stereo not drawn) | 8.97% |
| Cc1ccc(-n2c(C)cc(/C=N/NC(=O)c3ccncc3)c2C)c(C)c1 | -4.93% |
| Cc1cc(C(=O)OCC(=O)c2ccc3c(c2)OCCO3)c(C)o1 | 9.27% |
| COc1ccc(NC(=O)c2ccccc2Oc2ccccc2)c(OC)c1 | 11.9% |
| CC(=O)Nc1ccc(SCC(=O)Nc2ccccc2-c2ccccc2)cc1 | 12.6% |
| N#Cc1ccsc1NC(=O)C1=COCCO1 | 7.49% |
| COc1ccc(NC(=O)c2sc3nc(C)cc(C)c3c2N)cc1 | 19.1% |
| CC(C)(C)NC(=O)NC(=O)COC(=O)C1(C)CC1(Cl)Cl (stereo not drawn) | 7% |
| Cc1ccc(C)c(C(=O)CCC(=O)O)c1 | -3.19% |
| CC(=O)c1ccc(N2CCCC2)c(F)c1 | 5.72% |
| CC(C)C[C@H](NC(=O)c1cc2cc(Cl)ccc2n1C)C(=O)N1CCC(C(=O)O)CC1 | 10.9% |
| Cc1cccn2c(Nc3ccccc3)c(-c3ccccn3)nc12 | 5.27% |
| O=C(C(c1ccccc1)c1ccccc1)N1CCN(Cc2ccccn2)CC1 | 1.07% |
| CCCCC1=CC2=CC(=O)C(C)(OC(=O)CC)C(=O)C2=CN1CCOC (stereo not drawn) | 8.62% |
| COc1cc(/C=N/NC(=O)C(N)=O)cc(OC)c1O | 2.87% |
| S=c1[nH]nc(-c2cccs2)n1C1CCCCC1 | 9.76% |

| Structure (SMILES) | hERG current change (%, negative = inhibition) at 1uM |
| --- | --- |
| COC(=O)c1cc2ccsc2n1Cc1cc(=O)n2ccccc2n1 | 9.97% |
| COc1cccc(C(=O)NC2CCN(C(=O)N3CCCCC3)CC2)c1 | 13.4% |
| N/C(=N/OC(=O)c1ccccc1F)c1nonc1N | 17.2% |
| COc1cc(C(C#N)N2N=C(c3ccccc3)CC2c2ccccc2)ccc1O (stereo not drawn) | -3.66% |
| CCCn1c(SCC(=O)N2CCCCC2)nc2c1c(=O)n(C)c(=O)n2C | 14.1% |
| COc1ccc(-c2oc3ccc(N4CCOCC4)cc3c2C#Cc2ccc(N)cc2)cc1 | 14.2% |
| Br.O=c1cc2c(n[nH]1)CCCC2 | 4.64% |
| CCOc1ccc(NC(=O)C(C)Oc2ccccc2C(=O)Nc2cccc(Cl)c2Cl)cc1 (stereo not drawn) | 14.3% |
| Cc1ccc2cc(CNC(C)C)c(=O)[nH]c2c1 | -2.11% |
| CCCC(=O)Nc1ccc(NC(=S)NC(=O)c2ccccc2[N+](=O)[O-])cc1 | 9.36% |
| COc1cc(C2C(C#N)=C(N)Oc3n[nH]c(-c4cccnc4)c32)cc(Br)c1O (stereo not drawn) | 16.2% |
| Cn1c(NC(=O)c2ccc3c(c2)OCO3)cc(=O)n(C)c1=O | 17.2% |
| CCN(C(=O)[C@@H]1CCCN1C(=O)c1cccs1)c1nc2cc(Cl)ccc2s1 | -3.28% |
| CC(=O)Oc1ccc(C(=O)Nc2ccc(C3(C#N)CCCC3)cc2)cc1 | 19.6% |
| CCC1(CC)NC(=O)N(CC(=O)NCc2ccc3c(c2)OCO3)C1=O | 13.2% |
| Cc1ccc(C)c(CN2CCC(CNC(=O)Nc3ccc(C)c(C)c3)CC2)c1 | -42.8% |
| CN(C)CC(O)COc1cc2ccccc2cc1C(=O)N1CCCCC1 (stereo not drawn) | -13.7% |
| COc1cc(S(=O)(=O)N2CCCCC2)ccc1NC(=O)c1ccc(F)cc1 | -19.8% |
| CC(OC(=O)c1cc(=O)[nH]c2ccccc12)C(=O)c1ccccc1 (stereo not drawn) | -8.39% |
| CN1CCN(Cc2c(O)ccc3c(=O)c(Oc4ccccc4Cl)c(C(F)(F)F)oc23)CC1 | 6.95% |
| Cc1cc(C)cc(NC(=O)CN(c2ccc(F)cc2)S(C)(=O)=O)c1 | 12.9% |
